Data on 61 compounds can be found in PubChem BioAssay AID1963576 (National Center for Advancing Translational Sciences (NCATS), 2024).

Structures are written as SMILES. About 60 (0.1%) of roughly 46,000 compounds were called active. Roughly 3% stayed inconclusive and do not appear here. The call rests on the fitted dose curve; in most records, active means well fitted inhibition curve with a large enough effect; inconclusive means small, poorly fitted or top-dose-only effect; inactive means no such curve, though single readings can be large or run the other way. Some of the results follow.

The assay can be described thus: Primary qHTS assay for Inhibitors of ovarian cancer metastasis using an organotypic tumor microenvironment (TME) model. Further: nearly all actives have a fitted effect of over 65% in size.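 On activity change, negative = inhibition: plate controls were DMSO wells for no effect and tomatine positive control wells for full effect.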 Particulars: SKOV3ip1-GFP adhesion/invasion on 3D omental model, fluorescence; series mostly up to 45.8 µM; activity change, negative = inhibition: at the top concentration. In a few lines: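 A 3D layer of primary human omental fibroblasts, mesothelial cells, fibronectin and collagen I, grown 48 hr, received SKOV3ip1-GFP cells in serum-free medium plus compounds at 0.36-46 umol/L. After 2 hr RT and 16 hr 37 C, fixed adherent GFP cells were counted; normalized to DMSO and tomatine.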
(In general: Quantitative high-throughput screening tests each substance at several concentrations.)
For `CCOC(=O)C(=O)NCC(c1cccnc1)N1CCN(c2ccccc2)CC1` (stereo unspecified), the “activity change, negative = inhibition” value is inactive: -4.97%.

On to `Cn1cnc2c(=O)oc3ccc(S(=O)(=O)N4CCN(c5cccc(C(F)(F)F)c5)CC4)cc3c21`, for which the “activity change, negative = inhibition” value was inactive: 5.73%.

`CC(C)(C)OC(=O)N1CCC(c2c(C(=O)Nc3ccc4c(c3)OCCO4)cnn2-c2ccc(F)cc2F)CC1`: the “activity change, negative = inhibition” value is inactive: -8.44%.

On to `COc1ccc(OC)c(CCNC(=O)c2cc3cccc4c3n2CC(C)S4)c1` (stereo unspecified), for which the “activity change, negative = inhibition” value was inactive: 62.4%.

Turning to `Cn1c(=O)c2c(nc(CN3CCN(c4ccccc4F)CC3)n2Cc2ccccc2F)n(C)c1=O`, the “activity change, negative = inhibition” value is inactive: 21%.

Turning to `Cn1c2ccccc2c2c(C(=O)N3CCN(c4cccc(Cl)c4)CC3)cn(C3CCCCC3)c(=O)c21`, the “activity change, negative = inhibition” value was inactive: -8.23%.

Take `COc1ccccc1CCNC(=O)C(=O)NCC(c1ccco1)S(=O)(=O)c1ccc(F)cc1` (stereo unspecified): the “activity change, negative = inhibition” value is inactive: 9.71%.

Take `COc1cccc(N2CCN(C(=O)C3CCCN(S(=O)(=O)c4ccc5c(c4)oc(=O)n5C)C3)CC2)c1` (stereo unspecified): the result was inactive.

Turning to `O=C1C(=O)N(C2CCN(S(=O)(=O)c3ccccc3)CC2)CCN1Cc1ccccc1`, the “activity change, negative = inhibition” value was inactive: 4.7%.

Consider `O=C(NCc1ccc2c(c1)CCN2C(=O)c1ccncc1)c1ccccc1Cl`, for which the “activity change, negative = inhibition” value is inactive: 4.97%.

On to `Cn1c(=O)n(C)c2cc(N3CCOCC3)c(NC(=O)c3ccc(Cl)cc3)cc21`, for which the “activity change, negative = inhibition” value is inactive: -13.5%.

Consider `COc1cccc(CNC(=O)CCCn2ncn3c(cc4occc43)c2=O)c1OC`, for which the “activity change, negative = inhibition” value is inactive: -2.46%.

Consider `CCSc1ncc(Cl)c(C(=O)Nc2ccc(S(=O)(=O)Nc3ncccn3)cc2)n1`, for which the “activity change, negative = inhibition” value was inactive: -3.13%.

Consider `Cc1cccc(C(=O)Nc2nc3nc(-c4ccccc4)cc(=O)n3[nH]2)c1`, for which the “activity change, negative = inhibition” value was inactive: -7.86%.

As for `COC(=O)CN1C(=O)CSc2ccc(S(=O)(=O)Nc3cccc(C)c3)cc21`, the “activity change, negative = inhibition” value was inactive: -10.8%.

On to `CCC(=O)N1CCc2cc(Br)cc(S(=O)(=O)N3CCCC(C(=O)NCc4ccc(F)cc4)C3)c21` (stereo unspecified), for which the result was inactive.

On to `Cn1cc(S(=O)(=O)N2CCCCCC2)cc1C(=O)N1CCN(c2cccc(C(F)(F)F)c2)CC1`, for which the “activity change, negative = inhibition” value was inactive: -1.99%.

As to `Cc1ccn2c(=O)cc(COc3ccc(NC(=O)COc4ccccc4)cc3)nc2c1`, the “activity change, negative = inhibition” value is inactive: -2.4%.

As for `Cc1ccc(S(=O)(=O)N2CCN(Cc3cc(Br)ccc3O)CC2)cc1`, the “activity change, negative = inhibition” value is inactive: -8.78%.

`CCOc1ccc(CCNC(=O)C2CCN(Cc3nc(-c4ccc(OC)c(OC)c4)oc3C)CC2)cc1OCC`: the “activity change, negative = inhibition” value is inactive: 3.76%.

Regarding `CCOc1ccccc1NC(=O)C1CCN(S(=O)(=O)c2ccc3[nH]c(=O)ccc3c2)CC1`, the compound was called inactive.

Consider `COc1cc(-c2nc(-c3ccc4c(c3)[nH]c(=O)n4C)no2)cc(OC)c1OC`, for which the “activity change, negative = inhibition” value is inactive: -17.3%.

Consider `O=C1CSC2(C(=O)N(Cc3ccccc3)c3ccccc32)N1c1cccc(F)c1` (stereo unspecified), for which the “activity change, negative = inhibition” value is inactive: 4.08%.

For the compound `CCc1ccc(NC(=O)COC(=O)CCCC2=NS(=O)(=O)c3ccccc3N2)cc1`, the compound was classed as inactive.

Regarding `N#Cc1ccccc1NC(=O)C(=O)NCCc1csc(-c2ccc(C(F)(F)F)cc2)n1`, the “activity change, negative = inhibition” value is inactive: -17.3%.

As to `Cc1cccc(CCNC(=O)c2ccc3c(c2)nc2n3CCC(C)C2)c1` (stereo unspecified), the “activity change, negative = inhibition” value was inactive: -15%.

As to `COc1cc2c(cc1OC)C1CC(=O)C(CC(C)C)CN1CC2` (stereo unspecified), the “activity change, negative = inhibition” value is inactive: -15.4%.

With `COc1ccc(OC)c(NC(=O)c2ccc3c(SCC(=O)O)c4c(nc3c2)CCCC4)c1`, the call was inactive.

Take `O=S(=O)(c1ccc(Cl)cc1)c1nc(-c2cccc(Br)c2)oc1NCc1ccccc1`: the “activity change, negative = inhibition” value is inactive: -9.73%.

In the case of `COc1ccc(CCn2c(=O)c3cccnc3n(CC(=O)Nc3c(C)cccc3C)c2=O)cc1OC`, the “activity change, negative = inhibition” value is inactive: 4.25%.

Consider `CCc1cccc(C)c1NC(=O)Cn1c(=O)n(-c2ccc(C)cc2)c(=O)c2c1cnn2C`, for which the “activity change, negative = inhibition” value is inactive: 3.03%.

As for `COc1ccc(-c2nnc(SCC(=O)Nc3cc(OC)ccc3OC)nc2-c2ccc(OC)cc2)cc1`, the “activity change, negative = inhibition” value is inactive: 1.4%.

As to `Cc1ccc2nc(COc3ccccc3NC(=O)c3ccccc3C)cc(=O)n2c1`, the “activity change, negative = inhibition” value is inactive: -9.02%.

For `CCC(=O)N1c2ccccc2CC1C(=O)NCc1cccc(OC)c1OC` (stereo unspecified), the “activity change, negative = inhibition” value is inactive: 3.93%.

On to `COc1cccc(-c2ccc(-c3noc(-c4ccccc4Br)n3)c(OC)n2)c1`, for which the “activity change, negative = inhibition” value is inactive: -6.98%.

In the case of `O=C(c1ccco1)N1CCN(c2nc3c(F)cc(F)cc3s2)CC1`, the “activity change, negative = inhibition” value is inactive: -4.34%.

As for `CCOC(=O)C1CCCN(c2nc3c(S(=O)(=O)c4ccc(Br)cc4)nnn3c3ccsc23)C1` (stereo unspecified), the “activity change, negative = inhibition” value was inactive: -16.6%.

Regarding `COC(=O)c1c(SC)nc2ccccc2c1OCc1ccc(Br)cc1`, the “activity change, negative = inhibition” value is inactive: 4.95%.

With `O=C(/C=C/c1ccco1)Nc1ccc(F)cc1`, the “activity change, negative = inhibition” value is inactive: -4.34%.

Regarding `COc1cc(OC)cc(C(=O)Nc2cc(-c3nc4ccccc4[nH]3)ccc2C)c1`, the compound was called inactive.

Take `O=c1c2sccc2n(Cc2cc(=O)n3ccccc3n2)c(=O)n1-c1cc(F)ccc1F`: the call was inactive.

As to `COc1cccc2c1Oc1ncccc1N(C(=O)CCC(=O)NCCC(C)C)C2`, the “activity change, negative = inhibition” value is inactive: -2.84%.

Consider `COc1ccc(C(=O)Nc2ccc(-c3nnc4n3CCCCC4)cc2)cc1`, for which the “activity change, negative = inhibition” value was inactive: -3.18%.

In the case of `CCn1nc(-c2ccccc2)c(-c2ccccc2)c(C(=O)Nc2ccc(S(N)(=O)=O)cc2)c1=O`, the “activity change, negative = inhibition” value was inactive: 0.8%.

Consider `Cc1ccccc1CNC(=O)c1nn(-c2ccccc2F)nc1CO`, for which the call was inactive.

In the case of `CCN1CCN(C(=O)c2ccc3c(c2)N(Cc2cccc(Cl)c2)C(=O)c2ccccc2S3=O)CC1` (stereo unspecified), the “activity change, negative = inhibition” value is inactive: -5.58%.

Regarding `CCN(CC)CCCNc1cc(-c2ccccc2)nc(C)n1`, the outcome was inactive.

In the case of `COc1ccc(CCNC(=O)CSc2nc3nc(C)c(Cc4ccc(C)cc4)c(C)n3n2)cc1OC`, the call was inactive.

Turning to `O=S(=O)(c1ccc(Cl)cc1)c1nc(-c2ccccc2Br)oc1NCc1ccccc1`, the “activity change, negative = inhibition” value was inactive: 0.518%.

On to `Cc1ccc(N(CC(=O)Nc2cccc(Cl)c2C)S(=O)(=O)c2c(C)noc2C)cc1`, for which the “activity change, negative = inhibition” value is inactive: 0.395%.

As for `COc1ccc(CNC(=O)CS(=O)Cc2nc(-c3ccc(OC)c(OC)c3)oc2C)cc1` (stereo unspecified), the “activity change, negative = inhibition” value was inactive: 8.27%.

With `CCn1c(C)c(C)c2cc(C(=O)NCCCN3CCCCC3C)ccc21` (stereo unspecified), the “activity change, negative = inhibition” value is inactive: -1.79%.

`COc1ccc(Cn2c(=O)[nH]c3cc(C(=O)NCCC(C)C)ccc3c2=O)cc1`: the call was inactive.

Consider `COc1cc(C(=O)N(Cc2ccc(F)cc2)Cc2ccco2)cc(OC)c1OC`, for which the compound was called inactive.

In the case of `Cc1ccc(/C=C/C(=O)Nc2nc(-c3cccs3)ns2)cc1`, the call was inactive.

Regarding `COc1ccc(-n2cc(C(=O)N(CCN(C)C)Cc3ccccc3)c3ccccc3c2=O)cc1`, the “activity change, negative = inhibition” value is inactive: -5.36%.

`CCOc1ccc2nc(N3CCN(C(=O)c4ccc(S(=O)(=O)CC)cc4)CC3)sc2c1`: the “activity change, negative = inhibition” value is inactive: -6.49%.

With `CC(C)CCNC(=O)c1ccc(Cn2c(=O)c3cccn3c3cccnc32)cc1`, the “activity change, negative = inhibition” value is inactive: -6.87%.

Take `Cc1ccccc1Nc1c(-c2cccc(O)c2)nc2ccc(Br)cn12`: the “activity change, negative = inhibition” value is inactive: 1.74%.

Turning to `CCOC(=O)c1nc(Nc2ccc(OC)cc2)c2ccccc2n1`, the “activity change, negative = inhibition” value was inactive: 6.53%.

Regarding `O=S(=O)(NCc1ccc(F)cc1)c1ccc2[nH]c3c(c2c1)CCCCC3`, the “activity change, negative = inhibition” value was inactive: 7.94%.
